The whole screen tested about 44,000 compounds, of which about 340 (0.77%) were called active. Another 5% or so got no clear call; they are omitted. Calls come from the whole dose curve; as a rule, active = well fitted inhibition curve with a large enough effect; inconclusive = small, poorly fitted or top-dose-only effect; inactive = flat fitted curve, though single readings scatter. Some of the results follow.
Test: Acumen qHTS Assay for Inhibitors of the mTORC1 Signaling Pathway in MEF (Tsc2-/-, p53-/-) Cells: Sytravon;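 note: plate controls were DMSO for no effect and rapamycin for full effect; nearly all actives have a fitted effect of over 50% in size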
Conditions: phospho-rpS6 immunofluorescence/PI, 24 h; series mostly up to 38.3 µM; activity change, negative = inhibition: at the top concentration
In short: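 Tsc2-/-, p53-/- MEFs (empty-vector stable line) in DMEM + 10% FBS were treated with compounds 24 h at 37 degree Celsius, fixed, and immunostained for phospho-rpS6 (Alexa-488) with propidium iodide counterstain. Laser-scanning cytometry gave % positive cells, normalized against 7.5 nM rapamycin and DMSO.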

Activity change, negative = inhibition, inactive:
COc1ccc(-n2cc(C(=O)OCc3ccc(Cl)cc3)c3ccccc3c2=O)cc1 -2.36%
CN(C)c1ccc(C(CNS(=O)(=O)c2ccc(F)cc2)N2CCOCC2)cc1 (configuration not stated) 2.65%
Cc1c(C(=O)OC2CCCCCC2)[nH]c2c1C(=O)CC(c1ccc(N(C)C)cc1)C2 (configuration not stated) -4.49%
COc1cc(OC)cc(C(=O)Nc2cc(-c3nc4cccnc4s3)ccc2C)c1 5.2%
CCC(C(=O)Nc1ccc(C(=O)OC)cc1)n1nc(-c2ccc(C)c(C)c2)ccc1=O (configuration not stated) -11.2%
COc1ccc(NC(=O)C2CCN(S(=O)(=O)c3ccc4c(c3)CCCC(=O)N4)CC2)c(OC)c1 1.12%
CCOc1ccc(Nc2sc(C(=O)c3cccc(OC)c3)c(N)c2S(=O)(=O)c2ccccc2)cc1 -0.568%
Cn1c(=O)c(=O)n(C)c2cc(S(=O)(=O)N3CCCC3C(=O)Nc3ccc(F)cc3)ccc21 (configuration not stated) -5.32%
COc1ccc(S(=O)(=O)N(CC(=O)NCCSCc2ccccc2)c2ccc(C)cc2)cc1 -23.7%
CCOc1ccc(CNC(=O)Cn2ccc3cc(S(=O)(=O)N4CCCCC4)ccc32)cc1 -1.75%
COc1ccc(S(=O)(=O)N(Cc2nc(-c3ccc(Cl)cc3)no2)C2CCCCC2)cc1 -5.34%
Cc1ccc(S(=O)(=O)NCc2ccc(C(=O)NCCc3cccc(C)c3)cc2)cc1 -13.3%
Cc1ccc(Cn2c(=O)n(-c3cc(C)cc(C)c3)c(=O)c3oc4ccccc4c32)cc1 1.39%
O=C(c1ccccc1Br)N1CCC(c2nc3ccccc3o2)CC1 1.85%
O=S(=O)(c1ccc(-n2cnnn2)cc1)N1CCN(c2cccc(C(F)(F)F)c2)CC1 3.18%
Cc1oc(C)c2c(=O)cc(-c3ccc4c(c3)OCO4)cc(OC(=O)c3cccc(Cl)c3)c12 -0.0592%
COc1ccccc1NC(=O)C(Cc1ccccc1)NS(=O)(=O)c1cccc2nsnc12 (configuration not stated) 0.3%
COc1cc(Cl)c(C)cc1NC(=O)c1sc2nc(C)cc(C)c2c1N 0.592%
Cc1ccsc1CN(C(=O)COc1cccc(C)c1C)C1CCS(=O)(=O)C1 (configuration not stated) 1.98%
COc1cc(C(=O)N(Cc2cccnc2)c2nc3cc(C)c(C)cc3s2)cc(OC)c1OC -10.8%
CN1C(=O)C(C)(C)c2cc(S(=O)(=O)N3CCCC3C(=O)Nc3ccc(F)cc3)ccc21 (configuration not stated) 4.59%
CCCCOC(=O)c1cccc(NC(=O)/C=C/c2ccccc2Cl)c1 14.8%
COc1ccc(OC)c(NC(=O)CSc2nc3ccccc3c(=O)n2CCC(=O)NC2CCCCC2)c1 -1.77%
O=C(Cn1c(SCC(=O)Nc2ccc(F)cc2)nc2ccccc21)NCc1ccccc1Cl -9.35%
O=C(CCC1N=C2c3ccccc3N=C(SCC(=O)Nc3ccc(F)cc3)N2C1=O)NCc1cccs1 (configuration not stated) -5.88%
Cc1cccc(NC(=O)c2ccc(CNS(=O)(=O)c3ccc4c(c3)C(C)(C)C(=O)N4C)cc2)c1 -0.834%
Cc1ccccc1C(=O)N(Cc1ccc(N(C)C)cc1)CC1CCCO1 (configuration not stated) -7.04%
Cc1ccc(N2CCN(C(=O)NCc3noc4ccc(C)cc34)CC2)c(C)c1 -5.02%
COc1ccccc1NC(=O)CSC1=Nc2ccccc2C2=NC(CC(=O)NCc3ccc4c(c3)OCO4)C(=O)N12 (configuration not stated) -6.03%
CCOC(=O)c1noc2ncnc(NCc3ccccc3OC)c12 4.55%
COc1ccccc1N=C1SC(C(=O)Nc2ccccc2OC)CC(=O)N1C (configuration not stated) 0.459%
O=C(NCCOCCn1c(=O)oc2ccccc21)Nc1cccc(Cl)c1 -2.43%
COC(=O)c1ccccc1NC(=O)C1CCCN(c2ncnc3onc(C)c23)C1 (configuration not stated) 0.419%
Cc1ccc(CNC(=O)c2sc3nc4n(c(=O)c3c2C)CCCCC4)cc1 0.712%
CC(C)c1ccc(NC(=O)c2ccc3c(O)c(S(=O)(=O)c4ccccc4)c(=O)[nH]c3c2)cc1 1.61%
COc1cc(OC)c(N(C)C(=O)c2cc3c(=O)oc4ccccc4c3s2)cc1Cl 0.0992%
O=c1c2ccccc2n2c(-c3ccccc3F)nnc2n1CCc1ccccc1 2.24%
Cc1ccc(C(=O)N(c2ccc(C)cc2)S(=O)(=O)c2ccc(Cl)cc2)cc1 8.97%
Cc1ccc(-n2nc(C(=O)N(C)Cc3ccccc3)c3c4ccccc4n(C)c3c2=O)cc1 10.6%
Cc1ccc(-n2c(=O)c3c(c4cc(C)ccc4n3C)n(Cc3ccc(F)cc3)c2=O)cc1 -7.29%
Cc1ccc(NC(=O)C(Cc2ccccc2)N2Cc3ccccc3C2=O)cc1Cl (configuration not stated) -18.2%
CCCCNC(=O)CCn1c(=O)c2cccn2c2cccnc21 -0.415%
CCN(C(=O)c1c(C)oc2ncn(CC(C)C)c(=O)c12)c1cccc(Cl)c1 -0.643%
COc1ccc(C)cc1NC(=O)c1cc(S(=O)(=O)N2CCc3ccccc3C2)ccc1F -1.34%
Cc1oc(-c2ccc(C(=O)NCc3ccccc3Cl)cc2)nc1CN1CCc2ccccc21 -25.8%
CCCn1c(CCC(=O)Nc2ccc(C)c(Cl)c2)nc2cccnc21 -1.74%
O=C(CC1N=C2c3ccccc3N=C(SCc3cccc(Cl)c3)N2C1=O)NCCc1ccccc1 (configuration not stated) -2.76%
